Source: the supplement of paper PMC8728848
The list shows a part of the results.

What was measured:
Assay in all cases: glycan array binding signal (z-score within array); higher = stronger binding
Conditions in all cases: glycan notation: IUPAC condensed, linker removed
[1] = target: GalNAc(b1-4)GlcNAc(b1-2)Man
Summary of the method: (§1)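 Glycan array binding is given as a within-array Z-score, which can be read as non-binding when negative. The arrays, 3228 of them, came from the Consortium for Functional Glycomics database and were retained only where the protein sequence was available. Z-scores were averaged across arrays of the same protein sequence at different concentrations or buffers and across linkers.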

[2] = target: GalNAc(b1-4)GlcNAc(b1-2)Man(a1-3)[GalNAc(b1-4)GlcNAc(b1-2)Man(a1-6)]Man(b1-4)GlcNAc(b1-4)GlcNAc
Summary of the method: as §1

[3] = target: GalNAc(b1-4)GlcNAc(b1-3)GalNAc(b1-4)GlcNAc
Summary of the method: as §1

[4] = target: GalNAc(b1-4)GlcNAc6S
Summary of the method: as §1

[5] = target: GalNAc(b1-6)GalNAc
Summary of the method: as §1

[6] = target: GalNAc3S(b1-4)GlcNAc
Summary of the method: as §1

[7] = target: GalNAc3S(b1-4)GlcNAc3S
Summary of the method: as §1

[8] = target: GalNAc3S(b1-4)[Fuc(a1-3)]GlcNAc
Summary of the method: as §1

[9] = target: GalNAc4S6S(b1-4)GlcNAc
Summary of the method: as §1

[10] = target: GalNAc6S(b1-4)GlcNAc
Summary of the method: as §1

[11] = target: Glc(a1-4)Glc
Summary of the method: as §1

[12] = target: Glc(a1-4)Glc(a1-4)Glc(a1-4)Glc
Summary of the method: as §1

[13] = target: Glc(a1-6)Glc(a1-6)Glc
Summary of the method: as §1

[14] = target: Glc(a1-6)Glc(a1-6)Glc(a1-6)Glc
Summary of the method: as §1

[15] = target: Glc(b1-4)Glc
Summary of the method: as §1

[16] = target: Glc(b1-6)Glc
Summary of the method: as §1

[17] = target: GlcA(b1-3)Gal
Summary of the method: as §1

[18] = target: GlcA(b1-3)GlcNAc
Summary of the method: as §1

[19] = target: GlcA(b1-6)Gal
Summary of the method: as §1

[20] = target: GlcA3S(b1-3)Gal(b1-4)GlcNAc(b1-2)Man
Summary of the method: as §1

[21] = target: GlcA3S(b1-3)Gal(b1-4)GlcNAc(b1-3)Gal(b1-4)Glc
Summary of the method: as §1

[22] = target: GlcNAc(a1-3)Gal(b1-4)GlcNAc
Summary of the method: as §1

[23] = target: GlcNAc(a1-4)Gal(b1-3)GlcNAc
Summary of the method: as §1

[24] = target: GlcNAc(a1-4)Gal(b1-4)GalNAc
Summary of the method: as §1

[25] = target: GlcNAc(a1-4)Gal(b1-4)GlcNAc
Summary of the method: as §1

[26] = target: GlcNAc(a1-4)Gal(b1-4)GlcNAc(b1-3)Gal(b1-4)Glc
Summary of the method: as §1

[27] = target: GlcNAc(a1-4)Gal(b1-4)GlcNAc(b1-3)Gal(b1-4)GlcNAc
Summary of the method: as §1

[28] = target: GlcNAc(a1-4)Gal(b1-4)GlcNAc(b1-3)Gal(b1-4)GlcNAc(b1-3)Gal(b1-4)GlcNAc
Summary of the method: as §1

[29] = target: GlcNAc(a1-4)Gal(b1-4)GlcNAc(b1-3)Gal(b1-4)[Fuc(a1-3)]GlcNAc(b1-3)Gal(b1-4)[Fuc(a1-3)]GlcNAc
Summary of the method: as §1

[30] = target: GlcNAc(a1-6)Gal(b1-4)GlcNAc
Summary of the method: as §1

[31] = target: GlcNAc(b1-2)Gal(b1-3)GalNAc
Summary of the method: as §1

[32] = target: GlcNAc(b1-2)Man(a1-3)[GlcNAc(b1-2)Man(a1-6)]Man(b1-4)GlcNAc(b1-4)GlcNAc
Summary of the method: as §1

[33] = target: GlcNAc(b1-2)Man(a1-3)[GlcNAc(b1-2)Man(a1-6)]Man(b1-4)GlcNAc(b1-4)[Fuc(a1-6)]GlcNAc
Summary of the method: as §1

[34] = target: GlcNAc(b1-2)Man(a1-3)[GlcNAc(b1-4)][GlcNAc(b1-2)Man(a1-6)]Man(b1-4)GlcNAc(b1-4)GlcNAc
Summary of the method: as §1

[35] = target: GlcNAc(b1-2)Man(a1-3)[GlcNAc(b1-4)][GlcNAc(b1-2)Man(a1-6)]Man(b1-4)GlcNAc(b1-4)[Fuc(a1-6)]GlcNAc
Summary of the method: as §1

[36] = target: GlcNAc(b1-2)[GlcNAc(b1-4)]Man(a1-3)[GlcNAc(b1-2)Man(a1-6)]Man(b1-4)GlcNAc(b1-4)GlcNAc
Summary of the method: as §1

[37] = target: GlcNAc(b1-2)[GlcNAc(b1-4)]Man(a1-3)[GlcNAc(b1-4)][GlcNAc(b1-2)Man(a1-6)]Man(b1-4)GlcNAc(b1-4)GlcNAc
Summary of the method: as §1

[38] = target: GlcNAc(b1-2)[GlcNAc(b1-4)]Man(a1-3)[GlcNAc(b1-4)][GlcNAc(b1-2)[GlcNAc(b1-6)]Man(a1-6)]Man(b1-4)GlcNAc(b1-4)GlcNAc
Summary of the method: as §1

[39] = target: GlcNAc(b1-2)[GlcNAc(b1-4)]Man(a1-3)[GlcNAc(b1-4)][GlcNAc(b1-2)[GlcNAc(b1-6)]Man(a1-6)]Man(b1-4)GlcNAc(b1-4)[Fuc(a1-6)]GlcNAc
Summary of the method: as §1

[40] = target: GlcNAc(b1-2)[GlcNAc(b1-6)]Man(a1-6)[GlcNAc(b1-2)Man(a1-3)]Man(b1-4)GlcNAc(b1-4)GlcNAc
Summary of the method: as §1

[41] = target: GlcNAc(b1-2)[GlcNAc(b1-6)]Man(a1-6)[GlcNAc(b1-2)Man(a1-3)]Man(b1-4)GlcNAc(b1-4)[Fuc(a1-6)]GlcNAc
Summary of the method: as §1

[42] = target: GlcNAc(b1-2)[GlcNAc(b1-6)]Man(a1-6)[GlcNAc(b1-4)][GlcNAc(b1-2)Man(a1-3)]Man(b1-4)GlcNAc(b1-4)GlcNAc
Summary of the method: as §1

[43] = target: GlcNAc(b1-3)Fuc
Summary of the method: as §1

[44] = target: GlcNAc(b1-3)Gal
Summary of the method: as §1

[45] = target: GlcNAc(b1-3)Gal(b1-3)GalNAc
Summary of the method: as §1

B1: PLU (Photorhabdus luminiscence) (protein)
chain: HHHHHHENLYFQSSIVFASIDPRSNPLQTSSQNYVDIPGLKLDVSKYSNSPCLTALITLNIPTPYASGNNFPGGNFAIVTDQGEQLAYGGFTYSSKIPENSGRMPFTLVARYSLASNVSTIKAQWSNIRGSTVHIDSYASISAVIQCNQLV
[1]
  glycan array binding signal (z-score): -0.29
[2]
  glycan array binding signal (z-score): -0.358
[3]
  glycan array binding signal (z-score): -0.3
[4]
  glycan array binding signal (z-score): -0.287
[5]
  glycan array binding signal (z-score): -0.216
[6]
  glycan array binding signal (z-score): -0.222
[7]
  glycan array binding signal (z-score): -0.238
[8]
  glycan array binding signal (z-score): -0.132
[9]
  glycan array binding signal (z-score): -0.267
[10]
  glycan array binding signal (z-score): -0.332
[11]
  glycan array binding signal (z-score): -0.232
[12]
  glycan array binding signal (z-score): -0.276
[13]
  glycan array binding signal (z-score): -0.299
[14]
  glycan array binding signal (z-score): -0.248
[15]
  glycan array binding signal (z-score): -0.223
[16]
  glycan array binding signal (z-score): -0.288
[17]
  glycan array binding signal (z-score): -0.245
[18]
  glycan array binding signal (z-score): -0.329
[19]
  glycan array binding signal (z-score): -0.269
[20]
  glycan array binding signal (z-score): -0.284
[21]
  glycan array binding signal (z-score): -0.257
[22]
  glycan array binding signal (z-score): -0.248
[23]
  glycan array binding signal (z-score): -0.109
[24]
  glycan array binding signal (z-score): -0.301
[25]
  glycan array binding signal (z-score): -0.277
[26]
  glycan array binding signal (z-score): -0.234
[27]
  glycan array binding signal (z-score): -0.322
[28]
  glycan array binding signal (z-score): -0.367
[29]
  glycan array binding signal (z-score): -0.226
[30]
  glycan array binding signal (z-score): -0.285
[31]
  glycan array binding signal (z-score): -0.248
[32]
  glycan array binding signal (z-score): -0.291
[33]
  glycan array binding signal (z-score): -0.212
[34]
  glycan array binding signal (z-score): -0.223
[35]
  glycan array binding signal (z-score): -0.337
[36]
  glycan array binding signal (z-score): -0.253
[37]
  glycan array binding signal (z-score): -0.365
[38]
  glycan array binding signal (z-score): -0.322
[39]
  glycan array binding signal (z-score): -0.254
[40]
  glycan array binding signal (z-score): -0.254
[41]
  glycan array binding signal (z-score): -0.102
[42]
  glycan array binding signal (z-score): -0.19
[43]
  glycan array binding signal (z-score): -0.327
[44]
  glycan array binding signal (z-score): -0.354
[45]
  glycan array binding signal (z-score): -0.274
